# Reference: the supplement of paper PMC11417369
# ± gives the standard deviation of the averaged measurements. Some of the results follow.
# Test system: PfAP2-G AP2 domain (GST-tagged)
# Assay: gcPBM binding intensity (ln(normalized median fluorescence intensity)); higher = stronger DNA binding
# Outline: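 For binding intensity, the highest Masliner-normalised natural-log median intensity across replicate spots of either probe orientation was taken. Protein bound to the array was stained with Alexa488 anti-GST antibody and scanned at 488 nm. The protein, GST-tagged P. falciparum DNA-binding domains from E. coli at about 25 μg on average, had been applied for 1 h to an Agilent 4 × 180k array of primer-extended double-stranded 36-bp intergenic genomic probes and negative controls.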
row,Sequence,gcPBM binding intensity (ln)
1,ATAAAGAATATAAATACACACTTAAATATATATTAT [CACACA_site6071],9.79 ± 0.12
2,TTTTATTTTATTCAATTTTTACTTTTATAAAAATAT [GTGCAC_negctrl_site578],10.1 ± 0.23
3,AATATTAGGTTATGTAGTACATAACAATAATTATAC [XGTACX_site5733],11.5 ± 0.94
4,GTGTTGGGAAAAGGCATGCACTTTTTTTTTTTTTTT,10.6 ± 0.31
5,ATGTATATGCAAACATGTACATATATAAACATATAT [XGTACX_site4159],11.1 ± 0.67
6,TTCACTATACAAAGGTGTACTTAATTTTGTCCCATT [XGTACX_site7483],11.4 ± 0.76
7,AGTTATTACACACAAACATGCATTAATATCAAAAAA [TGCATGCA_site63],10.07 ± 0.064
8,CACAAAAATTTATACACACACATATAAAATATAGAT [CACACA_site6218],10.25 ± 0.071
9,ATTAGGTATTTTTTTTGTACATATTATATAATGTGA [XGTACX_site3815],10.9 ± 0.43
10,AATTCACATGTGAACTAAAAGAATATTATATATATA [CACACA_negctrl_site1632],9.92 ± 0.071
11,AAATATATATATAGTACATGCAGTAGATAATTTAAT [TGCATGCA_site299],10.8 ± 0.56
12,ATTTATAAAATTAATGCACACATCAGCATTTATAAA [CACACA_site1025],9.94 ± 0.19
13,TAAATACATAGATGTACACACATTACAGATGTACAT [CACACA_site4692],11.7 ± 0.98
14,TATAAAATAAAAAATAAATATCTATATATATATATA [TGCATGCA_negctrl_site351],9.83 ± 0.64
15,ATAAAGCACACCGACACACACATATTTATATTTATA [CACACA_site6620],10.2 ± 0.13
16,TTGTGTTATCCTTTTTTAGATCAACTATTTTTATTC [CACACA_negctrl_site145],10.01 ± 0.078
17,ACCGTTTTTGTGTAATGTACAAAATTTCTGACAGTG [XGTACX_site4999],10.8 ± 0.3
18,TTTTTTTTTTTAAGTTCACACATAAATTCGATTTAC [CACACA_site5057],10.1 ± 0.26
19,ATGTATTTAATAAGAACACACATATATTTAATTTAA [CACACA_site5606],9.79 ± 0.042
20,ATAATTTGTAAAAGGAGTACAAAACCATACTTTTTT [XGTACX_site6076],11.6 ± 1.1
21,AAAGGAAAATTAAAAAGTACACATTTGAAAAAAAAA [XGTACX_site2724],11.6 ± 0.95
22,AAAGAAAAAGAAAAAGAAAAATTAGAATATAAAATA [CACACA_negctrl_site792],9.22 ± 0.4
23,AATGATCATATATACACACACACAAAAAAAAAAAAA [CACACA_site4009],9.95 ± 0.3
24,TTTATACATTTATATTGTACTAATTCGATTTTATAT [XGTACX_site5424],11 ± 0.63
